According to PubChem BioAssay AID1347120 (National Center for Advancing Translational Sciences (NCATS), 2019):
Screen size: about 390,000 compounds; about 930 (0.24%) were called active. The shares of active, inactive and inconclusive entries below differ from those in the screen. Calls come from the whole dose curve; as a rule, active = well fitted activation curve with a large enough effect; inconclusive = small, poorly fitted or top-dose-only effect; inactive = no such curve, though single readings can be large or run the other way. Where the call is inconclusive, the potency comes from a doubtful curve fit.

experiment: qHTS for Suppressors of FUS Proteinopathy: Primary screen using FUS-linked yeast assay; note: nearly all actives have a fitted effect of over 55% in size; conditions: S. cerevisiae FUS-expressing, OD600, 24 h; Potency: growth rescue; series mostly up to 76.6 µM
In short: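 Yeast FUS proteinopathy model; galactose-induced FUS (2%), starting OD 0.005. Cpds in dilution series, 24hr, 30C, 99% humidity. Abs 600 nm growth. Pos ctrl CP55940 (top 92uM final); neg ctrl DMSO.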
Potency is the fitted concentration of half-maximal effect; tags give direction and shape of the fitted curve.

Structure (SMILES)	Potency
COc1ccc2[nH]c(=O)c(CN(Cc3nnnn3Cc3ccco3)C3CCCCC3)cc2c1	inconclusive: 31.6 µM [activator, partial curve, poor fit]
CCCNC(=O)c1cc2c(c(-c3cccc(-c4ccccc4F)c3)n1)[C@H](CCO)N(C(=O)CC1CC1)C2	inconclusive: 15.8 µM [activator, partial curve, poor fit]
CCCOc1ccccc1N/C(N)=N/c1nc(C)cc(C)n1	inactive
CC(C)(C)NC(=O)C(=O)NN=C1CCCCCCCCCCC1	inconclusive: 44.7 µM [activator, partial curve, poor fit]
N#CCc1ccc(OC[C@@H](O)CN2CCC(C(O)(c3ccccc3)c3ccccc3)CC2)cc1	inactive
CC(=O)Nc1ccc(S(=O)(=O)Oc2cccc(/C=C3\SC(N)=NC3=O)c2)cc1	inconclusive: 10 µM [activator, partial curve, poor fit]
COc1ccc(NC(=O)c2c(NC(=O)c3ccc(Br)cc3)sc3c2CCCC3)cc1	inconclusive: 12.6 µM [activator, partial curve, poor fit]
COC[C@H]1CCCN1c1ccc2c(c1)OCCCN(C1CC1)S2(=O)=O	inactive
O=C(Nc1ccccc1C(=O)NCCCn1ccnc1)c1ccc(Cl)cc1Cl	inconclusive: 6.31 µM [activator, partial curve]
COc1ccc(N/C(C)=C/C(=S)Nc2ccccc2)cc1	inactive
COCCCn1c(SCC(=O)NNC(=O)c2cccc(O)c2)nnc1-c1ccncc1	inactive
COc1ccc(C2c3[nH]c4ccccc4c3C[C@H]3C(=O)N(c4ccccc4C(=O)N4CCC[C@H]4C(=O)O)C(=O)N23)cc1 (some centres not stated)	inconclusive: 17.8 µM [activator, partial curve]
O=C(Nc1ccc(S(=O)(=O)Nc2nccs2)cc1)c1cc(-c2ccccc2Cl)nc2ccccc12	inconclusive: 17.8 µM [activator, partial curve, poor fit]
Cc1ccc(N(CC(=O)Nc2ccccc2-c2ccccc2)S(=O)(=O)c2ccccc2)cc1	inconclusive: 2.51 µM [activator, full curve]
O=C1[C@@H]2Cc3c([nH]c4ccccc34)C(c3ccc([N+](=O)[O-])cc3)N2C(=O)CN1C1CC1 (some centres not stated)	inconclusive: 25.1 µM [activator, single point]
COc1ccc(C(=O)N2CCCCC2c2cc(C(=O)NCc3ccccc3)no2)cc1 (configuration not stated)	inconclusive: 22.4 µM [activator, partial curve]
O=C(OCc1cn([C@H]2CN(C(=O)c3cccs3)[C@@H](c3ccccc3)C[C@@H]2O)nn1)c1ccccc1	inconclusive: 28.2 µM [activator, single point]
